Results published in the supplement of paper PMC12217912.
Some of the results follow. The full chains were built here from the parent and the listed change. Inactive controls read about 0.05.

B1: TEV protease; numbered along this chain (parent)
chain: MGESLFKGPRDYNPISSSICHLTNESDGHTTSLYGIGFGPFIITNKHLFRRNNGTLVVQSLHGVFKVKDTTTLQQHLVDGRDMIIIRMPKDFPPFPQKLKFREPQREERICLVTTNFQTKSMSSMVSDTSCTFPSGDGIFWKHWIQTKDGQCGSPLVSTRDGFIVGIHSASNFTNTNNYFTSVPKNFMELLTNQEAQQWVSGWRLNADSVLWGGHKVFMVKPEEPFQPVKEATQL

Variants of: B1
Test: raw area under fraction-flipped curve 0-4 h after induction (AUC4h, not background-subtracted), DNA-recorder readout of cleavage of the substrate (dimensionless); higher = more cleavage of the substrate by the protease variant
Conditions: temperature: 34 °C; time window: 0-4 h after rhamnose induction
Description: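 In vivo DNA recorder in E. coli TOP10(DE3) ΔrhaA at 34 °C. Each TEVp single-site mutant (parent TEVp 0) is paired with a single-site variant of the 7-mer TEVs (canonical ENLYFQ|S). The substrate sits between flexible linkers in a Bxb1-sfGFP-TEVs-SsrA fusion, so cleavage stabilises Bxb1 and speeds flipping of a recombination array, read by NGS. The value is the raw area under the fraction-flipped curve over 0-4 h after rhamnose induction (AUC4h), with ≥20 reads per time point. It is not background-subtracted; inactive controls average about 0.047.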
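Note: Bxb1 expression induced with 0.2% (w/v) L-rhamnose at OD600 near 0.5, cultures sampled hourly, flipped fraction per protease–substrate barcode pair counted by paired-end Illumina sequencing.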

Variant | area with substrate ENAYFQS | area with substrate ENCYFQS | area with substrate ENDYFQS | area with substrate ENEYFQS | area with substrate ENFYFQS | area with substrate ENHYFQS | area with substrate ENKYFQS | area with substrate ENNYFQS | area with substrate ENPYFQS | area with substrate ENQYFQS | area with substrate ENRYFQS | area with substrate ENSYFQS | area with substrate ENTYFQS | area with substrate ENVYFQS | area with substrate ENMYFQS | area with substrate ENGYFQS | area with substrate ENIYFQS | area with substrate ENWYFQS | area with substrate ENYYFQS
S60P | 0.0473 | 0.0562 | 0.0502 | 0.0492 | 0.0542 | 0.0458 | 0.0396 | 0.0507 | 0.0521 | 0.051 | 0.053 | 0.0701 | 0.0543 | 0.0388 |  |  |  |  | 
E108D | 0.0553 | 0.0675 | 0.0667 | 0.0612 | 0.0688 |  | 0.0994 |  |  | 0.0533 | 0.0519 | 0.0731 |  |  | 0.0656 |  |  |  | 
V210Q | 0.0621 | 0.0546 | 0.0718 | 0.0578 | 0.0588 | 0.0603 | 0.07 | 0.0612 |  | 0.0593 | 0.0428 | 0.0675 | 0.0605 | 0.0647 |  | 0.0682 | 0.0835 | 0.0751 | 
S124F | 0.0913 | 0.057 | 0.0587 | 0.0645 |  |  |  |  | 0.046 | 0.0514 | 0.0545 | 0.126 |  | 0.0745 | 0.0731 | 0.0403 |  |  | 
L99P | 0.0689 | 0.0507 | 0.06 | 0.0722 | 0.0677 | 0.0727 |  |  | 0.0512 | 0.0605 | 0.0639 |  | 0.0769 | 0.0801 |  | 0.0511 | 0.0801 | 0.0518 | 
C20P | 0.0507 | 0.0246 | 0.0503 | 0.0477 | 0.047 | 0.0479 | 0.0544 | 0.0538 | 0.0527 | 0.0538 | 0.0538 | 0.0448 |  | 0.0491 | 0.0706 | 0.0661 | 0.0572 | 0.029 | 
F180G | 0.0503 | 0.0382 | 0.0543 |  |  |  | 0.054 |  |  | 0.0857 | 0.0309 | 0.0481 |  | 0.0508 | 0.0485 |  |  |  | 0.0502
S121P | 0.0739 | 0.0735 |  | 0.0575 |  | 0.0439 |  | 0.0542 |  | 0.0646 | 0.0702 | 0.0818 | 0.0732 | 0.0789 | 0.0881 | 0.0432 |  | 0.0058 | 
L33W | 0.0647 | 0.0642 | 0.0556 | 0.069 | 0.0696 | 0.0816 | 0.0598 | 0.0627 | 0.0631 | 0.0547 | 0.0954 | 0.0585 | 0.0593 | 0.0551 | 0.0587 | 0.0559 | 0.048 |  | 0.062
T30N | 0.0546 | 0.0759 | 0.0526 | 0.0545 | 0.059 | 0.0483 | 0.0637 | 0.0616 | 0.0581 | 0.0598 | 0.0541 |  |  | 0.037 |  |  | 0.103 |  | 0.0505
R160P | 0.0561 | 0.0613 | 0.0529 | 0.0583 | 0.0591 | 0.0557 | 0.0521 | 0.0461 | 0.0541 | 0.0562 |  | 0.055 | 0.0767 | 0.0656 | 0.0631 | 0.0594 | 0.0763 |  | 0.0552
Q227S | 0.0595 | 0.0532 | 0.0662 | 0.0563 |  | 0.0542 |  |  | 0.0572 | 0.0642 | 0.0567 | 0.052 | 0.0658 | 0.0778 |  |  |  | 0.058 | 0.0664
T147I | 0.0564 | 0.0651 | 0.059 | 0.0469 | 0.0559 |  |  | 0.0586 | 0.0731 | 0.0557 | 0.0528 | 0.0529 | 0.0421 | 0.0544 | 0.0652 | 0.044 |  |  | 
L77E | 0.081 | 0.0611 | 0.0635 | 0.0707 | 0.0623 | 0.0485 |  | 0.0484 |  | 0.063 | 0.0606 | 0.0655 | 0.0612 | 0.0543 |  | 0.0583 | 0.0716 |  | 
F6Q | 0.0692 |  | 0.0655 |  | 0.0771 |  |  | 0.0807 | 0.0856 | 0.067 | 0.0593 | 0.0599 | 0.043 | 0.078 | 0.0712 | 0.0711 | 0.112 |  | 
D161R | 0.0532 | 0.0476 | 0.0715 | 0.0562 |  | 0.0371 |  | 0.0448 |  | 0.0586 |  | 0.0579 | 0.0536 | 0.0558 | 0.0674 | 0.0522 | 0.0597 | 0.0428 | 
T115E | 0.033 | 0.0558 | 0.0649 | 0.064 | 0.0401 | 0.0573 |  |  | 0.0673 | 0.0478 | 0.0634 | 0.0584 |  |  |  | 0.0763 |  | 0.0492 | 
S123G | 0.0616 |  | 0.0652 | 0.0599 | 0.068 | 0.0617 |  | 0.059 | 0.0532 | 0.0455 |  | 0.0705 | 0.0422 | 0.07 |  | 0.063 | 0.133 |  | 0.054
G162A | 0.0536 |  | 0.0326 |  |  | 0.0756 |  | 0.0733 |  |  | 0.0348 | 0.0545 | 0.0644 | 0.0761 |  | 0.0766 |  | 0.0591 | 
R51F | 0.0685 | 0.0601 | 0.0527 | 0.0594 | 0.0613 | 0.0601 |  | 0.0595 | 0.0561 | 0.0498 | 0.058 | 0.0635 | 0.102 |  | 0.0911 | 0.0553 | 0.108 |  | 
W141C | 0.0559 | 0.0604 | 0.0509 | 0.0515 |  | 0.0425 |  | 0.0468 |  | 0.0479 | 0.0396 | 0.0563 | 0.0638 | 0.0615 |  | 0.0581 |  | 0.0631 | 
T114A | 0.0683 | 0.0567 | 0.0496 | 0.06 | 0.0663 | 0.0561 |  | 0.0788 | 0.0536 | 0.053 | 0.0588 | 0.0683 |  | 0.0925 | 0.0742 |  |  | 0.008 | 
S154L | 0.0486 | 0.0773 |  |  | 0.0705 | 0.0387 | 0.0491 | 0.0717 |  | 0.0688 |  | 0.0638 | 0.0754 |  | 0.0915 | 0.083 | 0.162 | 0.0667 | 
G202Y | 0.051 |  | 0.0604 | 0.066 |  |  | 0.0555 |  |  | 0.0664 |  |  | 0.0491 |  |  | 0.0385 |  | 0.0358 | 0.0495
K230F | 0.0729 |  | 0.0597 | 0.0715 | 0.0604 | 0.0532 | 0.0469 | 0.0379 | 0.0493 | 0.065 | 0.0769 | 0.134 | 0.0558 |  |  | 0.0575 | 0.098 | 0.0067 | 
I164M | 0.0553 | 0.063 | 0.0598 | 0.0635 | 0.0567 | 0.0636 | 0.0461 | 0.0605 | 0.049 | 0.0587 | 0.0495 | 0.0602 | 0.0612 | 0.0633 | 0.054 | 0.0601 |  | 0.0584 | 0.0637
